The source of these data is PMC12136788.

Sequences and labels used below:
B1: chr5:128440902:128440903:+_ENSG00000066583_ENST00000173527|hu_mus|hu_hu_hu_mus_True|38_98 (ssRNA)
RNA: GGGAGUUCUACAGUCCGACGAUCUUGAACGGUGCUGCCAAGACCUUUGGGGUAUUGUUCCGUUAUGAUAACUGGAAUCCCUAAGAUCCGAGCUCCUUGCAACAAUCUCUGUCCCACACUAAUGAUGUCCCCAAAGUAUUUGAUCAACAGAGGAUUGAGCAUCA
B2: chr7:90019433:90019434:+_ENSMUSG00000057706_ENSMUST00000082237|mus_hu|mus_mus_mus_hu_True|78_78 (ssRNA)
RNA: GGGAGUUCUACAGUCCGACGAUCAAAUAAUACAGUGUUCUUUGCCAUAAGGCCAUAUAAAAAUAAAAAGAUUUAACCCAGCUACAAAAAAGUUCACUGAACUUAAAUUAAAAUACUUGUAAACAUCUUUGCAAUAUGAAAUAUCAACAGAGGAUUGAGCAUCA
B3: 208576698_208576818_349_CDS_ENSG00000163249_ENST00000295414|human|control|control (ssRNA)
RNA: GGGAGUUCUACAGUCCGACGAUCGAUGUGCUGCAGGUGGUGGCCCUCGCCCUCUCCGAAAUCCAACUCGGCAGGCUCCACCACAGCGGGCGCUACCGCCACCGCGUCCCCGGACACCGCCUCGUAGAUGUCGGACGCGCAGUACAACAGAGGAUUGAGCAUCA
B4: chr2:232320318:232320319:-_ENSG00000115053_ENST00000322723|hu_mus|FALSE|FALSE (ssRNA)
RNA: GGGAGUUCUACAGUCCGACGAUCACUAUUAAAGUCUACAAAACCAAACCCUUUGGAAGAACCAGUUUCCCGAUCAGUGACUAUUCUUGCACGAACAGAGCCCUCAAAUGAUUCUUUUAAGGUCUCUUCAGUGGUAUCCUCAGACAACAGAGGAUUGAGCAUCA
B5: 95850769_95853761_465_CDS_ENSG00000164941_ENST00000520526|human|control|control (ssRNA)
RNA: GGGAGUUCUACAGUCCGACGAUCAACUCAAGGUUAAGUUGUCUUCAAUGAAAAUCUGUAUUACCUCCUGAUAGUUGCCAGAUCUCAAACAAAUAUGGACUUGACUAUAUGGAGUCAACUGUUGAGAUGUACUAUCAGAAGAAGCAACAGAGGAUUGAGCAUCA
B6: chr16:94664741:94664742:+_ENSMUSG00000040785_ENSMUST00000117648|mus_hu|mus_mus_mus_hu_False|28_48 (ssRNA)
RNA: GGGAGUUCUACAGUCCGACGAUCUGGUACUGAUCUUGGUAGCUGAUAUUCAGGAGAAAGGCUGGCCAAGGGUGUAUAUAUGCUGGUGAACUGCGACAAACCUGGUACCAUGUUAAUGUAUGCUGGCGGUGUCUGGGUGAUAUCCAACAGAGGAUUGAGCAUCA
B7: chr1:243289802:243289803:-_ENSG00000143702_ENST00000366542|hu_mus|FALSE|FALSE (ssRNA)
RNA: GGGAGUUCUACAGUCCGACGAUCAAGGAAACGUCAUUCGUGUACUGUAACAUCCUCCUCUUCCCCAUCAGGGUUGAACCUAUUGAAAUGGAUACUGAAAUCAGCCUCAGAUUCAGCAUUCUCAAACUCAGUGGAGGCUGCUGCCAACAGAGGAUUGAGCAUCA
B8: chr19:40639365:40639366:-_ENSMUSG00000025007_ENSMUST00000025979|mus_hu|FALSE|FALSE (ssRNA)
RNA: GGGAGUUCUACAGUCCGACGAUCAGCUGCCACCUGGGGUAGACAGUCAGGACGAGAUUCAAAGAUCACCAGCAGAACUCCAAUUGGGACAGUCACUUGUUCCAGUUCCAAGUUUUUGGCGAUUCGGGUGCGGCGCAAAACACGCAACAGAGGAUUGAGCAUCA
B9: chr19:15271381:15271382:-_ENSG00000074181_ENST00000263388|hu_hu|motif|central (ssRNA)
RNA: GGGAGUUCUACAGUCCGACGAUCACGCUGCAAGGCAAGGAUGCAGGAGGGUUGGUGGAAAGAGAAGAGGAUGAAAAAGACGGAAAGGAAGGAAGAGACAGAGAAAGAAAGGAGGCAGGACGGGGGUCUCUUUAGGCCCCCAAGCAACAGAGGAUUGAGCAUCA
B10: chr16:45382771:45382772:-_ENSMUSG00000022661_ENSMUST00000163230|mus_mus|mus_mus_mus_hu_True|1_58 (ssRNA)
RNA: GGGAGUUCUACAGUCCGACGAUCCUGGGUCAUGUUAUAAGACAAAUGGACAGGGAGGGCAUGCUUCUCAAAAAAUGUGAACUACUCUCUAAGACUAACAAUAUUUAUCUAGCUAUAAAAAUAAGUUAAAUGAAUAAACAUUACCAACAGAGGAUUGAGCAUCA
B11: chr2:157383019:157383020:-_ENSMUSG00000067787_ENSMUST00000109528|mus_hu|FALSE|FALSE (ssRNA)
RNA: GGGAGUUCUACAGUCCGACGAUCGCUUGAGCCCAGACACCCAGGUGAAAGAGCAACAUCUAUCUGUUGCUUCCUUUCUUAAAAAUGAAGUGGAGAAAAUACUGAAGAUUUGUGGACAACUAACAGUCAAGACAUGUUUCUGUCCAACAGAGGAUUGAGCAUCA
B12: chr14:76904430:76904431:+_ENSMUSG00000022010_ENSMUST00000022587|mus_mus|mus_mus_mus_hu_True|38_78 (ssRNA)
RNA: GGGAGUUCUACAGUCCGACGAUCUGCAGCCAAAAACACCCUCGUGGAAAAAAAGAGCAAGCUCCAGCAGCCUUGUAUAAGCUAGAUAAAAUCUUCUAGCUGUCUGCAGCCCAGGGAGAAACAGAAAACGGCAGCCCUAAUUUACAACAGAGGAUUGAGCAUCA
B13: chr12:118471567:118471568:-_ENSG00000176871_ENST00000315436|hu_mus|FALSE|FALSE (ssRNA)
RNA: GGGAGUUCUACAGUCCGACGAUCAGCAGGGAACCAAACACCAGAGUUCCUCUGACCACAACGGAGGAACUUCAAACCAUGCAGCCGCUGGCUGGAAAUAGGCAGCAGAAAUGCCCUACGUGGCAGGUACUUCCCAGUUAAGGGCAACAGAGGAUUGAGCAUCA
B14: chr14:78183846:78183847:+_ENSG00000119705_ENST00000557342|hu_hu|hu_hu_hu_mus_False|48_58 (ssRNA)
RNA: GGGAGUUCUACAGUCCGACGAUCUCUCAGAAAUCUUUCUUCAUCAGAUGUUUGAGCUCCGUGCAAAGCCUUUGCUCUUCUAGUGUGAACCUGGACCUAUGGGAGGGAAAGCACUGUCAGAAAAGGUAAUUUUUUUUUUAAAGACAACAGAGGAUUGAGCAUCA
B15: 61493008_61495760_3952_CDS_ENSG00000170921_ENST00000424789|human|control|control (ssRNA)
RNA: GGGAGUUCUACAGUCCGACGAUCGCGUUUUGCCCUUGCUCUCGCAUAGUAAGCUUCAUAAGAUUUCGGUUUCAGCUCCAGGGCCUUAGUAGCAAAUUCCUCCGCCAUUCCAAAAUCGUUCAUUUUCCUGCGACACCGAGAGAGCAACAGAGGAUUGAGCAUCA
B16: 84624154_84629161_632_CDS_ENSG00000065615_ENST00000369681|human|control|control (ssRNA)
RNA: GGGAGUUCUACAGUCCGACGAUCAUAUAUGGCAAUGGUGACUAAAGAGUCUGUUUGGAACCAAUCAUAGCUUGGAUAACUAGGACCUUCUUUGGCAAGUGUAUCUGUCACUUGGCUCUUGGGAAGCAUGCCAUUUAAGACUUUCAACAGAGGAUUGAGCAUCA
B17: 135203144_135203264_3963_CDS_ENSG00000107290_ENST00000224140|human|control|control (ssRNA)
RNA: GGGAGUUCUACAGUCCGACGAUCUGGCUCAGGACACUGACGAAAUUUCUUUGGCGGCACUAUAGCAGGAGUUGUUCUACAACUUAGGUAAUUUGAACUUCUAUUCUGUCCUUUUUUGGCAUCUGAAUGAGUUUUCUUAGGGGUCAACAGAGGAUUGAGCAUCA
B18: chr1:244855233:244855234:+_ENSG00000121644_ENST00000302550|hu_mus|hu_hu_hu_mus_True|38_98 (ssRNA)
RNA: GGGAGUUCUACAGUCCGACGAUCCAUCAGAUGGUAGGCAUUGCCUUUAUACUCUUUCCCCAGUUCUUCUACAAUUUUCUCUAUAUCAUCUUCUAGAAAGUCCGUGCUUCCUAGAACAACAGCUUCUUUAAAUUUAAAUGUUUCCAACAGAGGAUUGAGCAUCA
B19: chr12:67691335:67691336:+_ENSG00000111530_ENST00000540319|hu_mus|FALSE|FALSE (ssRNA)
RNA: GGGAGUUCUACAGUCCGACGAUCCAUGGAGUCAUUUUUGGACAACUCUGACAACAGAUGUUCAAUAAGGUCUACAAAAACUAUAUUUCCGCAGCUCAUAACUAGGUGGCCAAGAGCAAUAAUUGUUCUUUUCCUCACUGCAAGCAACAGAGGAUUGAGCAUCA
B20: chr7:90019433:90019434:+_ENSMUSG00000057706_ENSMUST00000082237|mus_hu|mus_mus_mus_hu_True|78_108 (ssRNA)
RNA: B2 RNA with U27A, A29U, U30A, A31C, C32A, A33G, G34U, U35G, G36U
B21: chr4:17845017:17845018:+_ENSG00000109805_ENST00000514176|hu_mus|hu_hu_hu_mus_False|98_108 (ssRNA)
RNA: GGGAGUUCUACAGUCCGACGAUCGCUUCCUAACUUAGAUCUUCAUUUAAGGAACUCUGCAAGGUUAAGUUUACUUUUCUGUAGCGCAGCUGUUUUGGCUCGUCUGGGUAAUCUCAUCUUCAUUUCUGAUGGUGGUUCAUGAUCCAACAGAGGAUUGAGCAUCA
B22: chr11:77340908:77340909:-_ENSG00000074201_ENST00000525064|hu_hu|hu_hu_hu_mus_True|8_18 (ssRNA)
RNA: GGGAGUUCUACAGUCCGACGAUCGUUUGGAUCCCUGGACACCGCAUGUAAACUAAUGGUGGGGUAUUCCAGUGAGAAUCCUAAUCCCGAACCAUCUAACCAGGACAGGCGGCUCUCAGCGAUGUAAAGGGUACCAGUGCCGAGCAACAGAGGAUUGAGCAUCA

Changes are numbered by the printed parent chain. The list shows a part of the results.

This assay concerns the target T1, UNK ZnF1-3 (human, UniProt Q9C0B0 31-174).
T1 sequence: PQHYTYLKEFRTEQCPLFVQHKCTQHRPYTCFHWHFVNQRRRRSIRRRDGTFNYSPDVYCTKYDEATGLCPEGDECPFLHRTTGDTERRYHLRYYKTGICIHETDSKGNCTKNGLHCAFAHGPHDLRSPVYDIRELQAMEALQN
The assay can be described thus: nsRBNS (natural sequence RNA bind-n-seq); RBNS binding buffer (assumed for nsRBNS): 25 mM Tris pH 7.5, 150 mM KCl, 3 mM MgCl2, 0.01% Triton X-100, 500 ug/ml BSA, 20 U/ml SUPERase-In, 4 C; UNK is unkempt and MSI1 is Musashi-1; names of the RNAs are library labels; protein concentration not given here; high values mean tight binding.
Consider B1, for which the binding signal is 0.632 enrichment R.

The molecule B2 returned a binding signal of 3.22 enrichment R. Next, B3: 0.573 enrichment R; B4: 0.352 enrichment R. With B5 the figure was 0.442 enrichment R. Next, B6: 1.06 enrichment R; B7: 0.719 enrichment R; B8: 1.33 enrichment R. In turn, B9 had a binding signal of 2.14 enrichment R. With B10 the figure was 1.83 enrichment R. The molecule B11 showed a binding signal of 1.45 enrichment R. Next, B12: 2.63 enrichment R; B13: 1.09 enrichment R. Next, B14: 1 enrichment R.

The molecule B15 returned a binding signal of 1.12 enrichment R. With B16 the figure was 0.833 enrichment R; with B17, 1.18 enrichment R. The molecule B18 had a binding signal of 1.24 enrichment R. With B19 the figure was 0.889 enrichment R; with B20, 1.45 enrichment R; with B21, 0.52 enrichment R. Next, B22: 1.31 enrichment R.
